Results: PMC12136788
The list shows a part of the results.

T1: UNK ZnF1-3 (human, UniProt Q9C0B0 31-174)
T1 sequence: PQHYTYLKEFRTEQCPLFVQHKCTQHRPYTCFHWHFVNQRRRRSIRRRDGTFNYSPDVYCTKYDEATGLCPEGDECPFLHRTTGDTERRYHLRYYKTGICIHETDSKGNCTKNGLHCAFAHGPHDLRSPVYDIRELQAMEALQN

B1: 6249361_6249481_2370_CDS_ENSMUSG00000020456_ENSMUST00000003461|mouse|control|control (ssRNA)
RNA: GGGAGUUCUACAGUCCGACGAUCAUGAGGCAGCAGGAGCACAAUGCCAUUCUGCCGCACCCACUUUGCCUGUCCUGGGCAGAUGAACUGGUCAAUGAUGCACUGUGCCAUGUUGUUGAAGUCACCAAACUGGGCCUCCCAGAGCAACAGAGGAUUGAGCAUCA
B2: chr1:235505951:235505952:+_ENSG00000152904_ENST00000391855|hu_mus|FALSE|FALSE (ssRNA)
RNA: GGGAGUUCUACAGUCCGACGAUCUUUGUAGGCUUUAGCUUCAAGCUCUCUAAGAGUGUGUCGAGUGUAUGCAAAAGAACCUACAUCCUCCAGGUACUGCACACAAUACUUUUUAAUAUCUAUAUUCUCUGUUCUCUGGCGCAGCAACAGAGGAUUGAGCAUCA
B3: chr14:66974463:66974464:+_ENSMUSG00000022044_ENSMUST00000074523|mus_hu|mus_mus_mus_hu_False|78_78 (ssRNA)
RNA: GGGAGUUCUACAGUCCGACGAUCUUGUAGGACGACUUAUUCAGGGGAUCGGCCAGGAAGCAAGAGCAGAACAAGGACACCAGCGGGAGCUCCUUCAUCUUCUCUUUGUAGGCAGCAAGGGUCAUGUUUCUGGGAUCUGGUGGCCAACAGAGGAUUGAGCAUCA
B4: chr7:5336782:5336783:+_ENSG00000164638_ENST00000297195|hu_hu|FALSE|FALSE (ssRNA)
RNA: GGGAGUUCUACAGUCCGACGAUCUGGGUGCUCGAAGUGGACGUCCCCGGCGACAACGUCGUGGUGCACGCGGUAGCCAUAGCCCCUGCCCAGGCCUGGCCUGCCCCGGUGGCUGUCACGCGGCCGUGUGGUAUAGAAGAGCACCAACAGAGGAUUGAGCAUCA
B5: 4274702_4274822_3862_CDS_ENSMUSG00000020647_ENSMUST00000085814|mouse|control|control (ssRNA)
RNA: GGGAGUUCUACAGUCCGACGAUCCCCCUGUAGCCGCUGCUGCAGCUGCAGCCGAAGCUGGUUGGGUGCAGCUGGAGGUCUAUUGAGAGUCUGCCGGGGCUGCAUGCCCAUGUUGGGUGAAAAGGUUCCUCGAGGAGGUGUUACCAACAGAGGAUUGAGCAUCA
B6: 176684058_176687015_4977_CDS_ENSG00000165671_ENST00000439151|human|control|control (ssRNA)
RNA: GGGAGUUCUACAGUCCGACGAUCACAGCGGACACAGCGCAUCAACCGACCUUUAGAUGCAGAAACAUUGGCUGGAUUAGCAGCAUGACAGGUUAUACAGAUGUGGAGGGAGCACCGGAAGCCCUUGUUCUGCAUAACAGUGGGCAACAGAGGAUUGAGCAUCA
B7: chr9:79603372:79603373:-_ENSMUSG00000032330_ENSMUST00000034881|mus_hu|FALSE|FALSE (ssRNA)
RNA: GGGAGUUCUACAGUCCGACGAUCAAGCGAUUGCUGGGAUGACUGAAGUCACUCCUGCUUCUUGGGAAAUGAAGCCACAGCCAGCUCAUAUAUGGCAUAUGCUGUUCCUUCAAACAUUCCAAAGGCCUUACCACCAACUGUAAGCAACAGAGGAUUGAGCAUCA
B8: 6302852_6303219_2100_CDS_ENSMUSG00000041164_ENSMUST00000102914|mouse|control|control (ssRNA)
RNA: GGGAGUUCUACAGUCCGACGAUCUGGCCCAUCCGGCUCCUCCUUGAUGUGUAGGUCAGGCUUCACAGGCACUGGCUUCCAGCUGCACGUGGGGUCAAUGGUGAUCUCCUCGUAGUCUGAGUUCUGAAUAUAAAUCAGGAUGCCCAACAGAGGAUUGAGCAUCA
B9: chr2:48026839:48026840:+_ENSG00000116062_ENST00000540021|hu_hu|hu_hu_hu_mus_False|18_68 (ssRNA)
RNA: GGGAGUUCUACAGUCCGACGAUCAUAGUGAGCCACUAGCGUCCUAAAUCUGGAACAGUGGCGGUCAUCUGAAAACUGGCCGAUGAAAAACUUGCCCAGUGAAGUGUCCACAAAGCACACACCAUAUACACGAGUGUGACCAGACAACAGAGGAUUGAGCAUCA
B10: chr6:83878822:83878823:+_ENSMUSG00000030016_ENSMUST00000032088|mus_mus|FALSE|FALSE (ssRNA)
RNA: GGGAGUUCUACAGUCCGACGAUCUCCCUCGAGGAUUAAACCUGGGUCUCGACAUGGCUACUUUCAAGAAUGCCUGAUUUAAAAAAGUAUAAGGUGGUGUUGAACCAUGGGAGGCAACGGCAUUCAGCUGCUGAAGCGCCAACUCAACAGAGGAUUGAGCAUCA
B11: chr15:37385894:37385895:-_ENSG00000134138_ENST00000382766|hu_hu|motif|central (ssRNA)
RNA: GGGAGUUCUACAGUCCGACGAUCGCUGCCGUCUCUUUCAUCAAUGACGAGGUCGAUGGGCAUUUUCCCCUUCAAACAGCGGAUGUAUCGGUGGCAGAAGUUAUCGCACAGUUCGUGGACCUUUUCUAACUCCAAAAGAUGAAACAACAGAGGAUUGAGCAUCA
B12: chr7:56126341:56126342:+_ENSG00000146731_ENST00000540286|hu_mus|hu_hu_hu_mus_True|88_98 (ssRNA)
RNA: GGGAGUUCUACAGUCCGACGAUCCAUGUUUCUCCUCUUAGCUCUGCGCAGAGCAACGAUCCCUUCUUUCGCAAGGGCAUCUAAGGAAAAGGGGUCAAUCCCCUUUUGAUUAAUAACGACAAAUCCUUUAUCUGAGUCACCACACAACAGAGGAUUGAGCAUCA
B13: chrX:70927055:70927056:+_ENSMUSG00000019558_ENSMUST00000114465|mus_mus|FALSE|FALSE (ssRNA)
RNA: GGGAGUUCUACAGUCCGACGAUCAGAGGCUGUGUUUACUUCUGGUAUUCACCUUCACUAAGGGAUAAGAGAUCUACAGACCUACACAUACACACACAUACACACACACACACACACACACACACAGAGGGGGGUGUGCACUCACAACAGAGGAUUGAGCAUCA
B14: chr2:25301763:25301764:+_ENSMUSG00000026944_ENSMUST00000102919|mus_mus|FALSE|FALSE (ssRNA)
RNA: GGGAGUUCUACAGUCCGACGAUCAAGCUUCCGUUUGUUGCCUCCACUGUAGGUGCCAGCUGGCUUGUCUGCAUACUUUGUCAGUUCCAGCUUCUCUAGGGCCCACUUCACUACCUGUGCCUCAUCCUUCCAGGGGAUGCCACGCAACAGAGGAUUGAGCAUCA
B15: chr17:6086338:6086339:+_ENSMUSG00000034345_ENSMUST00000039487|mus_mus|FALSE|FALSE (ssRNA)
RNA: GGGAGUUCUACAGUCCGACGAUCUGACUGAAAUAUAAAAUCCAGUAGUGCUCCAAUACAGCUAGAGUGUCCAUAAAAAUCUAUCUUCUACUUAAUUCUUAGUAUCAGGUGUGUAAGUAACAAUCCACUGGAAAGUUUACAUUACAACAGAGGAUUGAGCAUCA
B16: chr9:96327448:96327449:+_ENSG00000048828_ENST00000277165|hu_hu|motif|central (ssRNA)
RNA: GGGAGUUCUACAGUCCGACGAUCAGUCACGAAAGUUUCAGAACACAUUGUGUUGAUUUUGAAAGGUCAUUUGCAUCUUCGGUGAUUUCAACUUUAUCUCCAUUUAACUUGCUUGUAAAGUAUGUAUGAUGUAUUGUAUAUUUACAACAGAGGAUUGAGCAUCA
B17: chr1:59768832:59768833:+_ENSMUSG00000026020_ENSMUST00000027174|mus_mus|FALSE|FALSE (ssRNA)
RNA: GGGAGUUCUACAGUCCGACGAUCCAUACUGACUCACAACCAUCCAGGUUAAACAAUGGAUUCUUUUGAACUCCACAGACUAAGGUGUAUAAGCAGUACACAUAUACACAUGCAAGAAAAACAAGAGACACAUAGACACACAUGCAACAGAGGAUUGAGCAUCA
B18: 56291633_56292106_645_CDS_ENSG00000011143_ENST00000393119|human|control|control (ssRNA)
RNA: GGGAGUUCUACAGUCCGACGAUCCAGGUCUGCCAUGAUGUGCAUUGUCUGAAGAGGGGUGUUAAUGACGUGGUUGUUCCUGACAAACUCUUCUGAGGGCUCCCAGGUGACGAUGCGUGACUUGAGGAUGCCGCCCUCCAUCCCCAACAGAGGAUUGAGCAUCA
B19: chr1:174983830:174983831:-_ENSG00000120333_ENST00000367677|hu_mus|FALSE|FALSE (ssRNA)
RNA: GGGAGUUCUACAGUCCGACGAUCUUCUGAAAUGGUUUUACCAUAUCGCUCGCUGGACUCCAGAAAGUAGCCCGUGGUCAGCUAAGUGGCGGAAGACAAUGCGACUAAGUCUCCAGCGACGCUUAACACCACGUGGGCGAGAUGCAACAGAGGAUUGAGCAUCA
B20: chr6:160200703:160200704:-_ENSG00000120438_ENST00000392168|hu_hu|motif|central (ssRNA)
RNA: GGGAGUUCUACAGUCCGACGAUCAUGAAAAGCUCUUAAUUUUGCAACCAGAUCUGUGGAGUCCUGGGCAGCAUUAACUGCGGGUGUAUUGGGAAUAACAAGAAGUGAUCUUGCAAACUCUGCAAUCGCAAGCUGUUCCCGAGACAACAGAGGAUUGAGCAUCA
B21: chr3:160143891:160143892:+_ENSG00000113810_ENST00000344722|hu_hu|FALSE|FALSE (ssRNA)
RNA: GGGAGUUCUACAGUCCGACGAUCAGCAAGUACAUUAGCUUCAAGUUCCUUAACUUGGACAUUCAAAUAUUCUUCUUGCUCUAUUAAACGCUGGAUGCUUGCAGUAAAUUUUUCUAGUGUGUUCCUCAUUUCUCGUUCACUAUGCAACAGAGGAUUGAGCAUCA
B22: chr15:42481402:42481403:-_ENSG00000166887_ENST00000318006|hu_mus|FALSE|FALSE (ssRNA)
RNA: GGGAGUUCUACAGUCCGACGAUCCUUUGAGACUGUAGUGAUUUGUUGAAAUGUCAGUAAGUCAUGGACAUAAAUGUUGUUUUCUAACAAGCUGACCAGAAUCUUAAACUGGGAAACCACAUGGAUCUGCUGGAUCUUUUUGGACAACAGAGGAUUGAGCAUCA

These binders were tested against T1, UNK ZnF1-3 (assay: nsRBNS (natural sequence RNA bind-n-seq); RBNS binding buffer (assumed for nsRBNS): 25 mM Tris pH 7.5, 150 mM KCl, 3 mM MgCl2, 0.01% Triton X-100, 500 ug/ml BSA, 20 U/ml SUPERase-In, 4 C; UNK is unkempt and MSI1 is Musashi-1; names of the RNAs are library labels; protein concentration not given here; high values mean tight binding).

| Binder | binding signal |
| --- | --- |
| B1 | 1.08 enrichment R |
| B2 | 0.78 enrichment R |
| B3 | 1.99 enrichment R |
| B4 | 0.724 enrichment R |
| B5 | 0.748 enrichment R |
| B6 | 1.53 enrichment R |
| B7 | 0.419 enrichment R |
| B8 | 0.887 enrichment R |
| B9 | 1.12 enrichment R |
| B10 | 1.42 enrichment R |
| B11 | 0.901 enrichment R |
| B12 | 1.1 enrichment R |
| B13 | 1.07 enrichment R |
| B14 | 0.608 enrichment R |
| B15 | 0.833 enrichment R |
| B16 | 0.519 enrichment R |
| B17 | 1.18 enrichment R |
| B18 | 0.691 enrichment R |
| B19 | 0.464 enrichment R |
| B20 | 0.947 enrichment R |
| B21 | 0.92 enrichment R |
| B22 | 0.492 enrichment R |
